Results reported in PubChem BioAssay (Tox21).
Several values for one entry are separate records, joined by “and”; a condition that tells them apart may be missing. Equal entries are not always repeated. Inconclusive means that the source gave no clear call. Such entries were picked first, then a sample of the others. For some assays here: Potencies of inconclusive entries are doubtful fits and often do not repeat. Activity calls are given as the source filed them. Unless noted, the call rests on the fitted dose curve; in most records, active means well fitted curve in the direction sought with a large enough effect in the repeat runs; inconclusive means weak or mixed curves; inactive means no such curve, though single readings can be large; an effect the other way counts as inactive or inconclusive.

Columns and labels:
[1] = A CellTox Green Cytotoxicity Assay to monitor cytotoxicity in HepG2 cells - 24 hour (AID 1224878); further: nearly all actives have a fitted effect of over 45% in size; further: potency means the concentration at half of the fitted maximal effect; on Cytotoxicity: on the % scale 0 is the no-effect control and ±100 the full control effect
Method in brief: (§1)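 Fluorescent DNA-binding dye, 600 HepG2 cells/well, 5 h preincubation then compound in DMSO; same plates read at 0–40 h, 37 C.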

[2] = qHTS assay to identify small molecule antagonists of the glucocorticoid receptor (GR) signaling pathway - cell viability counter screen (AID 720693); details: GR-bla HeLa viability, CellTiter-Glo luminescence, 18 h, with 5 nM dexamethasone present; viability change, negative = cytotoxic: at 58.5 µM (top of the series); further: nearly all actives have a fitted effect of over 55% in size; further: potency means the concentration at half of the fitted maximal effect
[3] = qHTS assay to identify small molecule antagonists of the estrogen receptor alpha (ER-alpha) signaling pathway using the BG1 cell line (AID 743080; calls by dose curve;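 further: BG1 cells stimulated with 17beta-estradiol alongside compound; nearly all actives have a fitted effect of over 25% in size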; further: potency means the concentration at half of the fitted maximal effect); details: BG1Luc4E2 ERE-luciferase antagonist mode, luminescence; activity change, negative = inhibition: at 70.3 µM (top of the series) unless noted
Method in brief: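 Luminescence from a 4×ERE-luciferase reporter in BG1-Luc-4E2 cells served as read-out. Cells, pre-cultured 5 days in stripped-serum phenol-red-free medium, were exposed to compound with 17beta-estradiol co-stimulation for 21.5 h at 37 C.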

Aromatase (Homo sapiens) = Aromatase (Homo sapiens) (UniProt P11511); experiment: qHTS assay to identify aromatase inhibitors (AID 743083); further: nearly all actives have a fitted effect of over 55% in size; further: potency means the concentration at half of the fitted maximal effect
Sequence of UniProt P11511 (P11511 whole entry, looked up): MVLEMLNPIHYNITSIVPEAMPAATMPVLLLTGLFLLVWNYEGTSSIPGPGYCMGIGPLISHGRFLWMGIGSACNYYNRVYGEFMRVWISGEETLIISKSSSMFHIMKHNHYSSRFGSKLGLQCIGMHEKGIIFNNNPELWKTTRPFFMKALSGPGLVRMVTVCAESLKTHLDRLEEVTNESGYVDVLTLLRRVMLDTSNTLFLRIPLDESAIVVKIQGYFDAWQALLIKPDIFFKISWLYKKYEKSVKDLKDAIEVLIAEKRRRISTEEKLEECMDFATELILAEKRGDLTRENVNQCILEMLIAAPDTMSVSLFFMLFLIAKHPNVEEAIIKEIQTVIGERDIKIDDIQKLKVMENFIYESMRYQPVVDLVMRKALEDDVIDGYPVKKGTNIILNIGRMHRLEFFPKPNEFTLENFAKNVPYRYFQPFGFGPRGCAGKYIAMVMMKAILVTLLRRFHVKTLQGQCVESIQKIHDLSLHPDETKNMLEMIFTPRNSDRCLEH

[4] = qHTS assay to identify small molecule that activate the aryl hydrocarbon receptor (AhR) signaling pathway - cell viability counter screen (AID 743086); further: nearly all actives have a fitted effect of over 45% in size; further: potency means the concentration at half of the fitted maximal effect
Method in brief: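 HepG2-AhR-luc (HG2L7.5c1) cells, 4000/well, treated 24 h at 37 C with compound; viability measured as CellTiter-Fluor fluorescence after 30 min in the same wells as the luciferase read.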

[5] = qHTS assay to identify small molecule antagonists of the estrogen related receptor (ERR) signaling pathway from Tox21 library - cell viability counter screen (AID 1224834); further: nearly all actives have a fitted effect of over 30% in size; further: potency means the concentration at half of the fitted maximal effect
Method in brief: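 In this quantitative HTS format, ERR cells receive compounds in DMSO and are incubated for 17.5 h at 37 C. Live-cell protease activity is then detected with CellTiter-Fluor.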

[6] = qHTS assay to identify small molecule agonists of the sonic hedgehog signaling (Shh) pathway - cell viability counter screen (AID 1259366); further: nearly all actives have a fitted effect of over 50% in size; further: potency means the concentration at half of the fitted maximal effect; on viability change, negative = cytotoxic: on the % scale 0 is the no-effect control and ±100 the full control effect
Method in brief: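 Stable Gli1-Luc NIH/3T3 clone, 2,000 cells/well. Compound exposure 24hr at 37C. Read-out: CellTiter-Fluor fluorescence.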

[7] = qHTS assay to identify small molecule antagonists of the sonic hedgehog signaling (Shh) pathway - cell viability counter screen (AID 1259367); further: nearly all actives have a fitted effect of over 55% in size; further: potency means the concentration at half of the fitted maximal effect
Method in brief: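 Fluorescence read-out (CellTiter-Fluor, 1 hr at 37C) taken after 23 hr compound treatment of 3T3 Gli1-Luc cells stimulated with conditioned medium. Cells were seeded at 2,000 per well and pre-incubated 4 hr.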

[8] = qHTS assay to identify small molecule antagonists of the estrogen receptor beta (ER-beta) signaling pathway - cell viability counter screen (AID 1259382); further: nearly all actives have a fitted effect of over 55% in size; further: potency means the concentration at half of the fitted maximal effect
Method in brief: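 HEK293T ER-beta-UAS-bla, 2% charcoal-stripped FBS; compounds + 1nM E2 16 hr 37C; CellTiter-Glo luminescence, 30 min RT.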

[9] = qHTS RealTime-Glo MT Cell Viability Assay in HEK293 cells - 40 hour (AID 1224874); details: RealTime-Glo luminescence; max response: hits give low values; further: nearly all actives have a fitted effect of over 50% in size; further: potency means the concentration at half of the fitted maximal effect
Method in brief: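 Measured as luminescence from the same continuously cultured HEK293 wells at successive time points (0, 8, 16, 24, 32, 40 h) after compound addition. Reagent present from seeding; dosing at 5 h; incubation 37 C.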

[10] = A CellTox Green Cytotoxicity Assay to monitor cytotoxicity in HepG2 cells - 40 hour (AID 1224879); further: nearly all actives have a fitted effect of over 40% in size; further: potency means the concentration at half of the fitted maximal effect
Method in brief: as §1

[11] = qHTS assay to identify aromatase inhibitors - cell viability counter screen (AID 743084); details: MCF-7 aro ERE viability, CellTiter-Fluor, 24 h; activity change, negative = cytotoxicity: at 70.3 µM (top of the series) unless noted; further: potency means the concentration at half of the fitted maximal effect; on activity change, negative = cytotoxicity: on the % scale 0 is the no-effect control and ±100 the full control effect
[12] = qHTS assay to identify small molecule agonists of the hypoxia (HIF-1) signaling pathway - cell viability counter screen (AID 1224844; calls by dose curve; further: nearly all actives have a fitted effect of over 50% in size; further: potency means the concentration at half of the fitted maximal effect; on activity change, negative = cytotoxicity: on the % scale 0 is the no-effect control and ±100 the full control effect)
Method in brief: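 Same wells as the HIF-1 reporter screen; ME-180 cells carrying HRE-bla, 17 hr treatment at 37C; CellTiter-Glo luminescence read after 30 min at room temperature.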

[13] = qHTS assay for small molecule disruptors of the mitochondrial membrane potential - cell viability (AID 720634; calls by dose curve; further: nearly all actives have a fitted effect of over 20% in size; further: potency means the concentration at half of the fitted maximal effect)
Method in brief: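 Same-well counter-screen: following the MMP dye addition, CellTiter-Glo was added to 1 hr compound-treated HepG2 cells and luminescence read after 30 min at room temperature.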

[14] = A CellTox Green Cytotoxicity Assay to monitor cytotoxicity in HEK293 cells - 40 hour (AID 1224871); further: on the % scale 0 is the no-effect control and ±100 the full control effect; nearly all actives have a fitted effect of over 45% in size
Method in brief: (§2)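 Homogeneous no-lysis format: HEK293 cell suspension mixed with CellTox Green reagent, seeded, incubated 5 h at 37 C/5% CO2, then dosed by pintool with compound in DMSO.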

[15] = qHTS assay to identify small molecule agonists of the TGF-beta/Smad signaling pathway - cell viability counter screen (AID 1346829); further: nearly all actives have a fitted effect of over 45% in size; further: potency means the concentration at half of the fitted maximal effect
Method in brief: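 Luminescence from CellTiter-Glo, read after a 30 min room-temperature incubation, gives cell viability of SBE-bla HEK 293T cells treated 5 hr with compounds at 37 C.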

[16] = A CellTox Green Cytotoxicity Assay to monitor cytotoxicity in HEK293 cells - 8 hour (AID 1224884); further: nearly all actives have a fitted effect of over 35% in size; further: potency means the concentration at half of the fitted maximal effect
Method in brief: as §2

[17] = qHTS assay to identify small molecule antagonists of the androgen receptor (AR) signaling pathway using the MDA cell line - cell viability counter screen (AID 743041); details: MDA-kb2 viability, CellTiter-Fluor, 16 h, cells co-treated with R1881 androgen agonist; viability change, negative = cytotoxic: at 70.3 µM (top of the series)
Method in brief: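 Cytotoxicity counter screen: MDA-kb2 AR-luc cells, compound + R1881, 16 h, 37C, 0% CO2; CellTiter-Fluor added at 15.5 h, fluorescence read after 30 min.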

[18] = molecular target: Aryl hydrocarbon receptor (Homo sapiens) (UniProt P35869); experiment: qHTS assay to identify small molecule that activate the aryl hydrocarbon receptor (AhR) signaling pathway (AID 743085); further: potency means the concentration at half of the fitted maximal effect; nearly all actives have a fitted effect of over 15% in size
Sequence of UniProt P35869 (P35869 whole entry, looked up): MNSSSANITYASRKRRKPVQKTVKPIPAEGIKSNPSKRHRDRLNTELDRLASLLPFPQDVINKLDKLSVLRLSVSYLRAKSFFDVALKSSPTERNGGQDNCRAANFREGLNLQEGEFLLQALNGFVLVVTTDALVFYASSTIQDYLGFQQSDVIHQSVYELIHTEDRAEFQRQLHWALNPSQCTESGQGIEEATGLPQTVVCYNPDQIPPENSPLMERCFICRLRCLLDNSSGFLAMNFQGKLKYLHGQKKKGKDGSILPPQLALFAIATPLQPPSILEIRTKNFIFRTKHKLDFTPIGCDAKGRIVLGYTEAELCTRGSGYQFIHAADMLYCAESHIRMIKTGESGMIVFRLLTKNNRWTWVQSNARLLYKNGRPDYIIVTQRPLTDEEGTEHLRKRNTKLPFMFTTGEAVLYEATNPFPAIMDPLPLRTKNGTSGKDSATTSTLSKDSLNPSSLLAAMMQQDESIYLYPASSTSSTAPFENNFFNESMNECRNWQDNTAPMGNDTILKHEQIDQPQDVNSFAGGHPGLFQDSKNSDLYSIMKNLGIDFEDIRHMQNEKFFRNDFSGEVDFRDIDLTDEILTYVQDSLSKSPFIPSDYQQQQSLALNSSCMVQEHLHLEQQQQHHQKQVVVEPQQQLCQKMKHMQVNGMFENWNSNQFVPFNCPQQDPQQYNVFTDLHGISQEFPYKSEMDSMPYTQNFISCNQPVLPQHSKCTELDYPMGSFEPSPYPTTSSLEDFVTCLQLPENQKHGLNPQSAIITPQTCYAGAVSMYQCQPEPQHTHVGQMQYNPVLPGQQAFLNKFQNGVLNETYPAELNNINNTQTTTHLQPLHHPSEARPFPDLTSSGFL
Method in brief: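 Reporter assay in engineered HepG2 line HG2L7.5c1, whose plasmid carries twenty dioxin responsive elements upstream of firefly luciferase. Treatment lasted 24 h at 37C; ONE-Glo luminescence gauged induction.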

[19] = qHTS assay to identify small molecule antagonists of the retinoic acid receptor (RAR) signaling pathway (AID 1159552; further: nearly all actives have a fitted effect of over 50% in size; further: potency means the concentration at half of the fitted maximal effect)
Method in brief: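 Overnight-plated C3RL4 reporter cells get compound, then retinol to 1 uM final; plates sit 6 hr at 37 C, 5% CO2. A luciferase reagent is added and light output recorded after 30 min at room temperature.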
Tags describe the fitted curve by direction and shape.

## BrCCCCCBr
[1]
  Potency: inactive

## O=C(CCCCCCC(=O)Nc1ccccc1)NO
[2]
  Potency: inconclusive: 2.13 µM [cytotoxic, full curve]
[3]
  Potency: active: 5.96 µM and active: 4.22 µM
Aromatase (Homo sapiens)
  Potency: inconclusive: 7.5 µM [inhibitor, full curve, poor fit] and inconclusive: 5.96 µM [inhibitor, full curve, poor fit]
[4]
  Potency: inconclusive: 4.22 µM [falling, partial curve, poor fit]
[5]
  Potency: inconclusive: 4.22 µM [cytotoxic, full curve]
[6]
  Potency: inconclusive: 15 µM [cytotoxic, partial curve]
[7]
  Potency: inconclusive: 9.44 µM [cytotoxic, partial curve]
[8]
  Potency: active: 1.19 µM

## C=C1CC[C@H]2O[C@]2(C)CC[C@@H]2[C@@H]1CC2(C)C
[9]
  Potency: inconclusive: 54.9 µM [cytotoxic, single point]

## CC1(C)C2=CCCC(C)(C)[C@]23CC[C@H]1C3
Aromatase (Homo sapiens)
  Potency: inconclusive: 54.5 µM [inhibitor, partial curve]
[1]
  Potency: inconclusive: 49 µM [activator, single point]
[10]
  Potency: inconclusive: 49 µM [activator, single point]
[8]
  Potency: inconclusive: 54.5 µM [cytotoxic, partial curve, poor fit]

## CC(=O)OC/C=C/c1ccccc1
[11]
  Potency: inactive

## COC(=O)CSc1cc(N=c2sc(=O)n3n2CCCC3)c(F)cc1Cl
[2]
  Potency: inconclusive: 61.6 µM [rising, partial curve, poor fit]
[12]
  Potency: inactive

## NC(=O)c1ccccc1Cl
[10]
  Potency: inactive
[6]
  Potency: inactive

## Oc1ccccc1F
Aromatase (Homo sapiens)
  Potency: inactive
[6]
  Potency: inactive

## CCC(=O)c1cccc(Cl)c1
[13]
  Potency: inactive

## NC(=O)NC1N=C([O][Al])NC1=O (centres undefined)
[14]
  Potency: inactive
[6]
  Potency: inactive
[15]
  Potency: inconclusive: 19 µM [rising, partial curve, poor fit]

## CCCOC(=O)CC
[10]
  Potency: inactive

## NC(=O)Cc1cccc2ccccc12
[5]
  Potency: inactive

## NCCNCCN
[2]
  Potency: inactive
[11]
  Potency: inconclusive: 26.6 µM [cytotoxic, partial curve, poor fit]
[16]
  Potency: inactive

## O=[N+]([O-])c1cc([N+](=O)[O-])c2ccc(S(=O)(=O)O)cc2c1O
[2]
  Potency: inactive
[17]
  Potency: active: 27.1 µM
[4]
  Potency: active: 24.2 µM
[10]
  Potency: inactive
[7]
  Potency: active: 8.58 µM
[8]
  Potency: inactive

## CC(=O)OC1CC(C)OC(C)O1 (centres undefined)
[9]
  max response: inactive: 5.08% and inactive: 9.58%
[7]
  Potency: inactive

## CCCCC(CC)COC(=O)COc1ccc(Cl)cc1C (centres undefined)
[3]
  Potency: inactive

## C1C2OC2C2C1C1CC2C2OC12 (centres undefined)
[2]
  Potency: inconclusive: 0.492 µM [rising, single point]
[1]
  Potency: inactive

## Cc1ccc(Nc2ccc(O)c3c2C(=O)c2ccccc2C3=O)cc1
[18]
  Potency: inconclusive: 54.6 µM [activator, partial curve, poor fit]

## CC(=O)OC1CCCCC1C(C)(C)C (centres undefined)
[13]
  Potency: inactive
[3]
  Potency: inactive

## NS(=O)(=O)c1ccccc1Cl
[15]
  Potency: inconclusive: 12.3 µM [cytotoxic, single point]

## NCCN1CCNCC1
[3]
  Potency: inconclusive: 38.6 µM [rising, partial curve]
[4]
  Potency: inactive

## CC(C(O)c1ccc(O)cc1)N1CCC(Cc2ccccc2)CC1 (centres undefined)
[17]
  Potency: inconclusive: 31.2 µM [cytotoxic, single point]
[3]
  Potency: inconclusive: 33.5 µM [falling, partial curve]

## NC(=O)NO
[12]
  Potency: inconclusive: 15.1 µM [cytotoxic, single point]

## CSc1nc(NC2CC2)nc(NC(C)(C)C)n1
[18]
  Potency: inconclusive: 1.72 µM [activator, full curve, poor fit]
[19]
  Potency: inconclusive: 54.5 µM [inhibitor, partial curve]
[7]
  Potency: inconclusive: 61.1 µM [cytotoxic, partial curve]

## COc1ccc(CCC(C)=O)cc1
[17]
  Potency: inconclusive: 61.1 µM [rising, partial curve, poor fit]
[8]
  Potency: inactive

## CC(O)CCCCn1c(=O)c2c(ncn2C)n(C)c1=O (centres undefined)
[14]
  Potency: inactive

## CCN(CCC#N)c1ccc(N=Nc2ccc([N+](=O)[O-])cc2)cc1
[1]
  Potency: inactive
[7]
  Potency: inactive

## Nc1ccn([C@@H]2O[C@H](CO)[C@@H](O)C2(F)F)c(=O)n1
[3]
  activity change, negative = inhibition: inconclusive: 2.24%
[19]
  Potency: inconclusive: 0.596 µM [inhibitor, full curve]
[15]
  Potency: inactive

## CC(C)(Oc1ccc(CCNC(=O)c2ccc(Cl)cc2)cc1)C(=O)O
[11]
  Potency: inconclusive: 30.6 µM [cytotoxic, partial curve]
[6]
  Potency: inconclusive: 30.6 µM [cytotoxic, partial curve]
[7]
  Potency: inconclusive: 34.4 µM [cytotoxic, partial curve]

## COc1c2occc2c(OC)c2c(=O)cc(C)oc12
[14]
  Potency: inactive
[9]
  Potency: active: 9.52 µM

## CNc1ncnc2nc[nH]c12
[19]
  Potency: inactive
[9]
  max response: inactive: 3.96%

## c1ccc(B(c2ccccc2)c2ccccc2)cc1
[13]
  Potency: inconclusive: 54.4 µM [cytotoxic, partial curve, poor fit]
[3]
  Potency: inconclusive: 34.3 µM [rising, partial curve]
[9]
  Potency: inconclusive: 21.8 µM [cytotoxic, partial curve]
[15]
  Potency: inactive

## O=C(O)CONC(=O)c1ccccc1
[10]
  Potency: inactive

## COc1cc(OC)nc(NC(=O)NS(=O)(=O)Nc2ccccc2C(=O)N(C)C)n1
[19]
  Potency: inconclusive: 68.6 µM [inhibitor, single point]
[5]
  Potency: inactive
[9]
  max response: inactive: 6.33%

## CC#N
[19]
  Potency: inconclusive: 0.0017 µM [inhibitor, partial curve, poor fit]

## O=C(O)c1cc(C(=O)O)cc(C(=O)O)c1
[11]
  Potency: inactive
[19]
  Potency: inconclusive: 19.6 µM [inhibitor, partial curve, poor fit]
[7]
  Potency: inconclusive: 69.5 µM [cytotoxic, single point]

## C=CC(C)CCCC(C)(C)O (centres undefined)
[13]
  Potency: inactive
[19]
  Potency: inactive
[14]
  Potency: inactive
[1]
  Potency: inactive
[16]
  Potency: inconclusive: 54.9 µM [activator, single point]

## COc1ccc(S(=O)(=O)N2c3ccc(Cl)cc3[C@@](O)(c3ccccc3Cl)[C@H]2C(=O)N2CCC[C@@H]2C(N)=O)cc1OC
Aromatase (Homo sapiens)
  Potency: inactive
[19]
  Potency: inconclusive: 33.5 µM [inhibitor, partial curve]
[6]
  Potency: inactive

## O=C(O)Cc1ccc(CCNS(=O)(=O)c2ccc(Cl)cc2)cc1
[19]
  Potency: inactive
